The test system of the assay is TYKNU. Kind of assay: fractional viability relative to vehicle; TYKNU is a high-grade serous ovarian cancer line; higher = less growth inhibition. Particulars: 72 h, genotype: OPA1 knockout (sgOPA1 #2). The gist of the method:
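TYKNU control cells or lentiCRISPRv2 knockout derivatives were plated at 500 cells per well in duplicate into drug-stamped 384-well plates holding a ~2100-compound library at 2 or 10 μM. Culture was in RPMI 1640 with 10% FBS at 37 °C in 5% CO2, with 72 h of drug treatment. Viability was measured by Cell Titer Glo luminescence, and the averaged duplicate treatment wells were normalised to duplicate control wells at the same plate position.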

Where a name gives a salt, the structure may show the parent alone. Whole data set: some 2,000 compounds, median “fractional viability relative to vehicle” near 0.92, cut for the lowest 2% near 0.11. Some of the results follow.

With `CCOC(=O)c1ccc(N)cc1` [Benzocaine], the fractional viability (2uM) was determined as 0.957 and the fractional viability (10uM) amounted to 0.932.

Consider `C[C@H]1[C@H](C)CC[C@]2(C(=O)O)CC[C@]3(C)C(=CC[C@@H]4[C@@]5(C)C[C@@H](O)[C@H](O)[C@@](C)(CO)[C@@H]5CC[C@]43C)[C@H]12` [Asiatic Acid], for which the fractional viability runs as follows: (2uM) 1.1; (10uM) 0.888.

Take `OC(CCCN1CCCCC1)(c1ccccc1)c1ccccc1` [Diphenidol HCl]: the fractional viability runs as follows: (2uM) 0.958; (10uM) 0.834.

With `CCN(CC)CCOC(=O)C(c1ccccc1)c1ccccc1` [Adiphenine HCl], the fractional viability is 0.994 (2uM) and 0.932 (10uM).

Take `CCCCCCCCCCCCc1ccc(S(=O)(=O)Nc2nncs2)cc1`: the fractional viability (2uM) is 1.06 and the fractional viability (10uM) was 1.05.

For the compound `c1cncc(CN2CCC(n3ncc4c(N5CCOCC5)nc(-c5ccc6[nH]ccc6c5)nc43)CC2)c1`, the fractional viability by setting is: (2uM) 0.74; (10uM) 0.373.

As for `COC1CCN(C(=O)c2cc(Cc3n[nH]c(=O)c4ccccc34)ccc2F)CC1`, the fractional viability reads like this: (2uM) 0.865; (10uM) 0.822.

Take `C=CC(=O)Nc1ccc(CN2C(=O)N(c3cc(OC)cc(OC)c3)Cc3cnc(Nc4ccc(N5CCN(C)CC5)cc4)nc32)cc1`: the fractional viability is, setting by setting: (2uM) 1.03; (10uM) 0.15.

With `Cn1cc(-c2ccncc2)c(-c2ccc(OCc3ccc4ccccc4n3)cc2)n1`, the fractional viability by setting is: (2uM) 1.19; (10uM) 1.19.

Compound `O=C(O)[C@H]1O[C@@H](Oc2cc3oc(-c4ccccc4)cc(=O)c3c(O)c2O)[C@H](O)[C@@H](O)[C@@H]1O` [Baicalin] came in with a fractional viability (2uM) of 0.776 and a fractional viability (10uM) of 0.933.

As for `Cc1cc(C)c(S(=O)(=O)n2cc(C)cc2C)c(C)c1`, the fractional viability reads like this: (2uM) 0.79; (10uM) 0.706.

Take `Cc1[nH]c2ccccc2c1CCNCc1ccc(/C=C/C(=O)NO)cc1` [Panobinostat (LBH589)]: the fractional viability by setting is: (2uM) 0.207; (10uM) 0.183.

For the compound `Cc1nc(-c2cccnc2)sc1C(=O)Nc1ccccc1-c1cn2c(CN3CCOCC3)csc2n1`, the fractional viability reads like this: (2uM) 0.748; (10uM) 0.855.

`O=c1ccc2ccccc2o1` [Coumarin]: the fractional viability turned out to be 0.843 (2uM) and 0.858 (10uM).

In the case of `Nc1nc(=S)c2ncn([C@H]3C[C@H](O)[C@@H](CO)O3)c2[nH]1`, the fractional viability is, setting by setting: (2uM) 1.03; (10uM) 0.763.

For `Nc1ccc(C(=O)Nc2cccc(-c3nc(N4CCOCC4)c4oc5ncccc5c4n3)c2)cn1`, the fractional viability reads like this: (2uM) 0.423; (10uM) 0.208.

Take `CN(C)CCCN1c2ccccc2Sc2ccc(Cl)cc21` [Chlorpromazine HCl]: the fractional viability came out at 1.11 (2uM) and 0.755 (10uM).

In the case of `C[C@H](Nc1ncnc2[nH]cnc12)c1cc2ccc(F)cc2nc1-c1ccccn1`, the fractional viability by setting is: (2uM) 0.879; (10uM) 0.836.

`CCOc1ccccc1OC(c1ccccc1)C1CNCCO1` (stereo not drawn) [Reboxetine mesylate]: the fractional viability is, setting by setting: (2uM) 1.17; (10uM) 0.888.

On to `O=c1[nH]cnc2c1ncn2[C@@H]1O[C@H](CO)[C@@H](O)[C@H]1O` [Inosine], for which the fractional viability was 1.08 (2uM) and 1.01 (10uM).

Regarding `O=C1NC(=O)/C(=C/c2ccc3c(c2)OC(F)(F)O3)S1`, the fractional viability amounted to 0.902 (2uM) and 0.926 (10uM).

Regarding `COc1cc([C@@H]2c3cc4c(cc3[C@@H](O[C@@H]3O[C@@H]5CO[C@@H](c6cccs6)O[C@H]5[C@H](O)[C@H]3O)[C@H]3COC(=O)[C@H]23)OCO4)cc(OC)c1O` [Teniposide], the fractional viability runs as follows: (2uM) 0.551; (10uM) 0.269.

The compound `Cc1nc(Nc2ncc(C(=O)Nc3c(C)cccc3Cl)s2)cc(N2CCN(CCO)CC2)n1` [Dasatinib] registered a fractional viability (2uM) of 0.862 and a fractional viability (10uM) of 0.783.

With `CCN1CCN(Cc2ccc(-c3cc4c(N[C@H](C)c5ccccc5)ncnc4[nH]3)cc2)CC1`, the fractional viability by setting is: (2uM) 1.08; (10uM) 0.607.

As for `CCOC(=O)c1c(CSc2ccccc2)n(C)c2cc(Br)c(O)c(CN(C)C)c12` [Arbidol HCl], the fractional viability was 1.36 (2uM) and 0.822 (10uM).

`Cc1cc(Nc2nc(N[C@@H](C)c3ccc(F)cc3)c(C#N)cc2F)n[nH]1`: the fractional viability is, setting by setting: (2uM) 0.704; (10uM) 0.641.

For the compound `Cc1nc(-c2ccc(OCC(C)C)c(C#N)c2)sc1C(=O)O` [Febuxostat], the fractional viability by setting is: (2uM) 1.2; (10uM) 0.93.

With `COc1ccc(CC2c3cc(OC)c(OC)cc3CC[N+]2(C)CCC(=O)OCCCCCOC(=O)CC[N+]2(C)CCc3cc(OC)c(OC)cc3C2Cc2ccc(OC)c(OC)c2)cc1OC` (stereo not drawn) [Atracurium Besylate], the fractional viability was 1.08 (2uM) and 0.975 (10uM).

Take `CC(=O)[C@H]1CC[C@H]2[C@@H]3CC=C4C[C@@H](O)CC[C@]4(C)[C@H]3CC[C@]12C` [Pregnenolone]: the fractional viability by setting is: (2uM) 0.969; (10uM) 0.879.

`CN(C)c1ccc(C(=C2C=CC(=[N+](C)C)C=C2)c2ccc(N(C)C)cc2)cc1` [Crystal Violet] yielded a fractional viability (2uM) of 0.323 and a fractional viability (10uM) of 0.0953.

Regarding `CC(C(=O)O)c1ccc2c(c1)CC(=O)c1ccccc1S2` (stereo not drawn) [Zaltoprofen], the fractional viability is, setting by setting: (2uM) 1.02; (10uM) 0.944.

Take `Oc1cc2c(cc1O)[C@@H]1c3ccc(O)c(O)c3OC[C@]1(O)C2` [Hematoxylin]: the fractional viability by setting is: (2uM) 0.963; (10uM) 0.85.

On to `C=C1/C(=C\C=C2/CCC[C@]3(C)[C@@H]([C@H](C)/C=C/[C@H](C)C(C)C)CC[C@@H]23)C[C@@H](O)C[C@@H]1O` [Doxercalciferol], for which the fractional viability runs as follows: (2uM) 1.05; (10uM) 0.787.

Take `C[C@H]1O[C@@H](Oc2c(-c3cc(O)c(O)c(O)c3)oc3cc(O)cc(O)c3c2=O)[C@@H](O)[C@@H](O)[C@@H]1O` [Myricitrin]: the fractional viability was determined as 0.865 (2uM) and 0.856 (10uM).

The values are drawn from the supplement of paper PMC5919970.
